The other results are listed elsewhere or left out.
T1: UNK ZnF1-3 (human, UniProt Q9C0B0 31-174)
T1 sequence: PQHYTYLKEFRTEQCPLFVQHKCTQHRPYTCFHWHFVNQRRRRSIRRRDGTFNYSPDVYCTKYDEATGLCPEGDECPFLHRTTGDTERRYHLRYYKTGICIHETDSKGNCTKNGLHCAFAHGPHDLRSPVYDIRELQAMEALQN

B1: 242173309_242174586_3446_CDS_ENSG00000115677_ENST00000391976|human|control|control (ssRNA)
RNA: GGGAGUUCUACAGUCCGACGAUCCUUUCUCCCGAUAAUCUUGGGAUGGUAUUUGGGGUCUACAGUGACACUCAGCUUAAAACUCCUUAAAGCCCGGUCCUCCUGCUCGGCCUGUAGCUCCUUCACACGCUCCAGCAGUCCAGCCAACAGAGGAUUGAGCAUCA
B2: chr22:19452774:19452775:-_ENSG00000070010_ENST00000399523|hu_hu|hu_hu_hu_mus_False|98_98 (ssRNA)
RNA: GGGAGUUCUACAGUCCGACGAUCCUUCUCAUUGUAGUUGAUGGCAAUCACAUCUCCAGUCGUCAGACAGGCGAAGUUUCUCAAUGCAUUUUCUAAUACCGCUUUAGGGUUGGUAAUAUCCAGGAAGUCUGGGCUCUGAGGCUGCAACAGAGGAUUGAGCAUCA
B3: chr3:150459880:150459881:-_ENSG00000181788_ENST00000312960|hu_mus|motif|central (ssRNA)
RNA: GGGAGUUCUACAGUCCGACGAUCGGAAGAUGUACUGAAUAAAACAUCUAUUAAAAAACCUUUAUUAAACAUAGAGCGCGGUGCCCAAAUAACUUCCCAGGGUUAGGAAAGCCUCCUGGAGCCUCACUGACAGCAUGUAGAUAUCAACAGAGGAUUGAGCAUCA
B4: chr11:87793471:87793472:-_ENSMUSG00000020483_ENSMUST00000020775|mus_mus|mus_mus_mus_hu_False|78_88 (ssRNA)
RNA: GGGAGUUCUACAGUCCGACGAUCUGGACUUGAAAAUAAAAGAAUAAGCUAGAUUUCCCCACCCCUUACAUUGUCAACCCUACACGAGAGUUUUGAAGGCGACUCAUGAAAAUCAGCAGCUCAAACGGCAAUGACCACCCCACCCAACAGAGGAUUGAGCAUCA
B5: chr2:217001844:217001845:+_ENSG00000079246_ENST00000392132|hu_hu|hu_hu_hu_mus_False|1_98 (ssRNA)
RNA: GGGAGUUCUACAGUCCGACGAUCACCAACUUGAGGAUUAGCUCUUUUGUCAUAAGCAUAUCGGACGAUGGCGACCAUGUUUAACUCAUCCAAAGCAUGAACGAGAGAGGAAAGGGCAACAGCUGCCGCCUCAUCAUCUCUUGCCAACAGAGGAUUGAGCAUCA
B6: chr2:132618855:132618856:+_ENSMUSG00000027350_ENSMUST00000028826|mus_mus|motif|central (ssRNA)
RNA: GGGAGUUCUACAGUCCGACGAUCUUCAGGUUCUUCUUCUGAAGCCCUGUAGUGAGCUAGAUGGUGACUCCUUUUUUCCCCGGAACGGACUGUGGCCACAUCUGCCUCCUUGGACUCCUUGGGAGAGGGUCUCCUUUCCUCAGACAACAGAGGAUUGAGCAUCA
B7: 101445554_101445674_1705_3pUTR_ENSMUSG00000001175_ENSMUST00000110082|mouse|control|control (ssRNA)
RNA: GGGAGUUCUACAGUCCGACGAUCGUCUGGUUUCAGGAGUUGUGGCUAGAGAACCUGGUGGGAAAUCCAGCUUGCACUGGAUGUUGCGUGUCUCUGUGUAUGCUGACCUCCCCUCCAGCGGCCUUGGCCUUGUCCCCCUUCCAACAACAGAGGAUUGAGCAUCA
B8: chr19:8913615:8913616:-_ENSMUSG00000071658_ENSMUST00000096259|mus_hu|mus_mus_mus_hu_False|58_108 (ssRNA)
RNA: GGGAGUUCUACAGUCCGACGAUCAGGGGGGCACCAACUUCUGCCUGAAAUGGGUGCCCCACCCAGUAGGGAGUUGCAGCUAAAAAUAUCUGAUGCAGAAGCAGUGACUAUACGAAAGGAGGCCCCUGGGGAGGGCCAGGCCAGCAACAGAGGAUUGAGCAUCA
B9: chrX:71549762:71549763:+_ENSMUSG00000019087_ENSMUST00000019231|mus_mus|mus_mus_mus_hu_False|1_18 (ssRNA)
RNA: GGGAGUUCUACAGUCCGACGAUCAAACCCGUGUACUUCUUAUUGUUAGCACAACAUCACCAGAAAACGAUAACGACAGCCAAGCAGGACAGACAGUUAAGUAGUACUUCCACACUCCGCAAAUUCAGGAGCCCUAUAGUUCAUCAACAGAGGAUUGAGCAUCA
B10: chr1:39494564:39494565:+_ENSG00000168653_ENST00000372967|hu_hu|hu_hu_hu_mus_True|48_58 (ssRNA)
RNA: GGGAGUUCUACAGUCCGACGAUCAUGCAUUCGCCUCAUCGUUUUGUACCGAAGCAAGCACUCUUCGAAGUCAUCGAAUUCUAUCUUGCACUCUUUCUUCGCCCGGGUCCCACCGAUCCCGUGUGCACACUCUAUCCACUCUUUCAACAGAGGAUUGAGCAUCA
B11: 156574219_156574339_2710_ncRNA_ENSMUSG00000061689_ENSMUST00000127944|mouse|control|control (ssRNA)
RNA: GGGAGUUCUACAGUCCGACGAUCCGCUCAUGUGUCCACCCACCUGCCCCGCCCAGCCCCCACACCUGAGCCACCACCCACACCCACACCCGGCUUGGUUAUUAGAAAUCCAGCAAGGAGAAGUGGGUUAGGGAGAGCAGGAGACAACAGAGGAUUGAGCAUCA
B12: chr4:25749455:25749456:-_ENSG00000091490_ENST00000264868|hu_hu|hu_hu_hu_mus_False|28_108 (ssRNA)
RNA: GGGAGUUCUACAGUCCGACGAUCGCAAGCACUAGGAUAGAAAAAUCCACAGGGGGAAAAAAUGUAAACCAAUGUACAAUGUUAUCGCCUUCCCUGUGUGUGGAGUGACAAACAAUUGGCUCCUUCUAGCUGCUGGAUUUGGGACAACAGAGGAUUGAGCAUCA
B13: chr2:163839756:163839757:+_ENSMUSG00000018326_ENSMUST00000018470|mus_hu|FALSE|FALSE (ssRNA)
RNA: GGGAGUUCUACAGUCCGACGAUCUUUCAUUUUCAAGUAGAACACCUUACUUUCUGGUUGUGUAGCAUUGGGAAUAAGAUAUUUGUCCAACAGCUCCAGAACAUCAUUGCAGAUGUCCUGCAGUUCUGCCUCUAUCUUCUCACGCAACAGAGGAUUGAGCAUCA
B14: chr12:16048344:16048345:+_ENSG00000023734_ENST00000419869|hu_hu|hu_hu_hu_mus_True|8_98 (ssRNA)
RNA: GGGAGUUCUACAGUCCGACGAUCAGAUCGUCCAUAAGUUAUAACCAAAAUCUCUCCUUCAGGAAUAUACUCCAUGCUGCUAACAGACAUAUUAAAAUUCAGAGAUUUCACUUCUGUCAUUGUGGCAUGAUCCCAAAGCCGAACCAACAGAGGAUUGAGCAUCA

Biological target: T1, UNK ZnF1-3
Assay: nsRBNS (natural sequence RNA bind-n-seq); RBNS binding buffer (assumed for nsRBNS): 25 mM Tris pH 7.5, 150 mM KCl, 3 mM MgCl2, 0.01% Triton X-100, 500 ug/ml BSA, 20 U/ml SUPERase-In, 4 C; UNK is unkempt and MSI1 is Musashi-1; names of the RNAs are library labels; protein concentration not given here; high values mean tight binding

Binder	binding signal [enrichment R]
B1	1.56
B2	0.855
B3	1.72
B4	1.67
B5	1.65
B6	0.662
B7	0.524
B8	0.908
B9	1.54
B10	0.662
B11	0.695
B12	1.38
B13	0.562
B14	1.34
